Measurements published in article PMC4336329 (PLoS ONE, 2015).
The whole screen tested about 310,000 compounds, of which about 2,200 (0.71%) showed an effect of 50% or more. Effects have a minus sign here. The list shows a part of the results.

target: human ether-à-go-go-related gene (hERG) potassium channel (human, UniProt Q12809); assay: primary screen, population patch clamp on CHO cells stably expressing hERG
Sequence (Q12809 whole entry, looked up): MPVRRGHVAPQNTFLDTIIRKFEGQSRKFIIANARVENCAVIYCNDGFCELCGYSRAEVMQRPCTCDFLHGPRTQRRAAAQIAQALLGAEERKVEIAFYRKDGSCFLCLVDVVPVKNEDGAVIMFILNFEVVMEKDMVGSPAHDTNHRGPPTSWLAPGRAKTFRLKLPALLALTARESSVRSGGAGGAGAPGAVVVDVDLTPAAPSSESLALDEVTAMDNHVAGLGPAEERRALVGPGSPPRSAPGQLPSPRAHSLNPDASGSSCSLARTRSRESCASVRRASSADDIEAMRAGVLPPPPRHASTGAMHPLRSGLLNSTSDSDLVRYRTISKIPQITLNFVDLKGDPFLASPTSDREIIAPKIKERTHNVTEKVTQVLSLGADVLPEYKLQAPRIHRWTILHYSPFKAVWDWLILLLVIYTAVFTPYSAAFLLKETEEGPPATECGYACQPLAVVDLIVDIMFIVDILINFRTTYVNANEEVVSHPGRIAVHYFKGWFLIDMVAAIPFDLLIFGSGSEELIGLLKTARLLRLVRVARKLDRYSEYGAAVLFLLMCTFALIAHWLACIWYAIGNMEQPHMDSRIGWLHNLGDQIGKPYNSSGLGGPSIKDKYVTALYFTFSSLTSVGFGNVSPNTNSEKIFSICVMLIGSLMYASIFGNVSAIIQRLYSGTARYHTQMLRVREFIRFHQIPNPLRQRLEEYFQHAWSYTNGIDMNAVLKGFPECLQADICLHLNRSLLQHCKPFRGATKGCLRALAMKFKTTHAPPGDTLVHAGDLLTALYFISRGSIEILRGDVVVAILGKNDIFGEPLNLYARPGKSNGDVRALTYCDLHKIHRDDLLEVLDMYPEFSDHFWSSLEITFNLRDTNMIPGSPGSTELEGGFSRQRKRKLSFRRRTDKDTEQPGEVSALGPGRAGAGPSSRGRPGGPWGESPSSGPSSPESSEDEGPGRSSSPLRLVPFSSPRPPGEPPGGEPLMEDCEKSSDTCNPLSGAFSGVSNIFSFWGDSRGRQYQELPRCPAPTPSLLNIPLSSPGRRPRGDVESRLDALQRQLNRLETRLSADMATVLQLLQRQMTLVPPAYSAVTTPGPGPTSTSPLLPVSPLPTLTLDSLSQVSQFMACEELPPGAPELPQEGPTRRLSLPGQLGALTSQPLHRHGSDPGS

SMILES | hERG current change (%, negative = inhibition) at 1uM [%]
O=C(CNS(=O)(=O)c1ccccc1)Nc1ccc(C(F)(F)F)cc1 | -4.14
COc1cc(CC(=O)OCn2nnc3ccccc3c2=O)cc(OC)c1OC | 11.9
COCCN1CCN(C(=O)C2CCC(=O)N(Cc3cccc(C(F)(F)F)c3)C2)CC1 (stereo not drawn) | -2.67
COc1ccc(Cl)cc1/C=C1/C(=O)ON=C1C | 12.5
COC(=O)c1oc2ccc(Br)cc2c1NC(=O)CCN1CCOCC1 | -6.66
Cc1nc(CS(=O)(=O)c2ccccc2)cc(Sc2ccc(Cl)cc2Cl)n1 | 0.355
O=C(Cc1cccs1)N(c1ccc(Br)cc1)C1C=CS(=O)(=O)C1 (stereo not drawn) | 6.81
C=CCn1cc(/C=C2\SC(N3CCOCC3)=NC2=O)c2ccccc21 | 13.1
COc1ccc(C)cc1NC(=O)c1cc2ccccc2cc1OCC(=O)NCc1ccco1 | 3.05
COc1cccc(N(CC(=O)NC2CC3CCC2C3)S(=O)(=O)c2ccccc2)c1 (stereo not drawn) | -9.98
Cc1cc(=O)oc2cc(NC(=O)C(CCCN=C(N)N)NC(=O)OCc3ccccc3)ccc12 (stereo not drawn) | 11
CN(CC(=O)Nc1ccc(F)cc1)C(=O)COC(=O)/C=C/c1ccccc1[N+](=O)[O-] | -7.91
Cc1cc(Cl)ccc1-n1c(-c2cccnc2)n[nH]c1=S | 9.62
Cc1ccc(NC(=O)COc2ccc(/C(N)=N/O)cc2)cc1C | 3.34
CS(=O)(=O)N(CC(=O)Nc1cccc(Cl)c1)c1ccccc1Cl | -1.27
Cc1cc(/C=N/NC(=O)c2cccs2)c(C)n1-c1cnccn1 | 10.1
COc1ccc([N+](=O)[O-])cc1N(CC(=O)N1CCN(Cc2ccccc2)CC1)S(C)(=O)=O | 9.95
COCCCN1CC(=O)N2C(c3cccc(OC)c3OC)c3[nH]c4ccccc4c3C[C@H]2C1=O (stereo partly drawn) | 9.98
CCOC(=O)N1CCC(N(CCCOC)C(=O)Nc2cccc(OC)c2)CC1 | 5.59
CCc1ccc(C(=O)O)cc1 | 11.5
COc1ccccc1CNC(=O)COC(=O)CCC(=O)c1cccs1 | 11.5
COc1cccc(C2NC(c3cccc(OC)c3O)C(C)C(=O)C2C)c1O (stereo not drawn) | -2.36
Cc1cccnc1NC(=O)CNC(=O)C12CC3CC(CC(Cl)(C3)C1)C2 | 12.7
Cc1cccc(NC(=O)CCSc2ccccn2)c1 | 6.01
